The experiment has as its system NCI-H1944. Put plainly: normalised cell viability (NPI; 0 = phenylarsine oxide control, 1 = DMSO control) (fraction of DMSO control); NCI-H1944 is a non-small cell lung cancer line; higher = more viable cells (less compound toxicity). The note with it: 6 days.
[1] abbreviates: glucocorticoid arm: hydrocortisone 2.75 uM co-treatment, compound 1 µM.
Where [2] appears, read: glucocorticoid arm: hydrocortisone 2.75 uM co-treatment, compound 5 µM.
The mark [3] stands for this setting: glucocorticoid arm: hydrocortisone 2.75 uM pre-treated 2 days and continued, compound 1 µM.
[4] abbreviates: glucocorticoid arm: hydrocortisone 2.75 uM pre-treated 2 days and continued, compound 5 µM.
[5] abbreviates: glucocorticoid arm: vehicle, compound 1 µM.
Setting [6] is: glucocorticoid arm: vehicle, compound 5 µM.

Structures can show the parent of a compound that is named as a salt. ± gives the standard deviation of the averaged measurements. Over roughly 1,900 compounds, “normalised cell viability (NPI; 0 = phenylarsine oxide control, 1 = DMSO control)” has its median near 1; the lowest 2% begin near 0.039. Some of the results follow.
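Further: CTB read-out in 384-well plates, mean of triplicate wells, normalised per plate against 1 µM phenylarsine oxide and 0.1% DMSO, compounds added 24 h after seeding.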

For the compound `NC(=O)CN1CC(O)CC1=O` (centres undefined) [Oxiracetam], the normalised cell viability runs as follows: under setting [1], 1.004 ± 0.0098; under setting [2], 1.01 ± 0.035; under setting [3], 1.01 ± 0.01; under setting [4], 1.05 ± 0.07; under setting [5], 0.9897 ± 0.0042; under setting [6], 0.9997 ± 0.0091.

Regarding `C[N+]1(C)CCN(c2ccccc2)CC1` [1,1-Dimethyl-4-phenyl-piperazinium iodide], the normalised cell viability was found to be 1.001 ± 0.009 under setting [1]; 1.001 ± 0.0081 under setting [2]; 1.01 ± 0.016 under setting [3]; 1.01 ± 0.011 under setting [4]; 0.9977 ± 0.004 under setting [5]; 1.003 ± 0.0058 under setting [6].

With `C[C@H](Cc1ccc2c(c1)OC(C(=O)O)(C(=O)O)O2)NC[C@H](O)c1cccc(Cl)c1`, the normalised cell viability was 0.9927 ± 0.0067 under setting [1]; 1.005 ± 0.0092 under setting [2]; 0.9937 ± 0.004 under setting [3]; 1 ± 0.022 under setting [4]; 0.985 ± 0.0085 under setting [5]; 0.9877 ± 0.0059 under setting [6].

In the case of `CCCN1CCC[C@H](c2cccc(O)c2)C1` [R(+)-3PPP hydrochloride], the normalised cell viability runs as follows: under setting [1], 0.968 ± 0.01; under setting [2], 0.936 ± 0.012; under setting [3], 0.998 ± 0.02; under setting [4], 0.962 ± 0.011; under setting [5], 0.968 ± 0.0035; under setting [6], 0.9747 ± 0.0071.

`NC(=O)COc1c(F)cc(SCCNS(=O)(=O)c2ccccc2)cc1F`: the normalised cell viability runs as follows: under setting [1], 1.002 ± 0.0076; under setting [2], 1.02 ± 0.023; under setting [3], 0.988 ± 0.016; under setting [4], 1.03 ± 0.021; under setting [5], 1; under setting [6], 1.01 ± 0.015.

Regarding `CCN(C)C(=O)Oc1cccc([C@H](C)N(C)C)c1` [Rivastigmine Tartrate], the normalised cell viability came out at 1.005 ± 0.0092 under setting [1]; 1.043 ± 0.0058 under setting [2]; 1.01 ± 0.014 under setting [3]; 1.02 ± 0.018 under setting [4]; 1.007 ± 0.0058 under setting [5]; 0.992 ± 0.007 under setting [6].

In the case of `CN(C)C(=O)Oc1cc(OC(=O)N(C)C)cc(C(O)CNC(C)(C)C)c1` (centres undefined) [Bambuterol HCl], the normalised cell viability runs as follows: under setting [1], 0.986 ± 0.014; under setting [2], 0.982 ± 0.015; under setting [3], 1 ± 0.024; under setting [4], 0.968 ± 0.02; under setting [5], 0.982 ± 0.0087; under setting [6], 0.999 ± 0.011.

Regarding `CN(C(=O)Cc1ccc(Cl)c(Cl)c1)C(CN1CCCC1)c1cccc(OCC(=O)O)c1` (centres undefined) [ICI 204,448 hydrochloride], the normalised cell viability stood at 1.007 ± 0.0058 under setting [1]; 1.02 ± 0.024 under setting [2]; 1.01 under setting [3]; 1.04 ± 0.076 under setting [4]; 0.997 ± 0.0027 under setting [5]; 1 ± 0.014 under setting [6].

In the case of `NCCc1ccc(O)cc1` [4-Hydroxyphenethylamine hydrochloride], the normalised cell viability is 0.9857 ± 0.0021 under setting [1]; 1.01 under setting [2]; 0.831 ± 0.31 under setting [3]; 0.9977 ± 0.004 under setting [4]; 0.995 under setting [5]; 0.991 ± 0.0046 under setting [6].

Take `C[N+]1(C)[C@@H]2C[C@@H](OC(=O)[C@H](CO)c3ccccc3)C[C@H]1[C@@H]1O[C@@H]12` [(-)-Scopolamine methyl bromide]: the normalised cell viability was 1.01 ± 0.013 under setting [1]; 1.01 ± 0.023 under setting [2]; 1.01 ± 0.027 under setting [3]; 1.01 ± 0.023 under setting [4]; 1.01 ± 0.01 under setting [5]; 1.017 ± 0.0058 under setting [6].

`C[N+]1(C)[C@@H]2C[C@@H](OC(=O)[C@H](CO)c3ccccc3)C[C@H]1[C@@H]1O[C@@H]12` [Methscopolamine]: the normalised cell viability under setting [1] came out at 1.02 ± 0.01; the normalised cell viability under setting [2] was found to be 1 ± 0.019; the normalised cell viability under setting [3] amounted to 1.03 ± 0.02; the normalised cell viability under setting [4] worked out at 0.988 ± 0.028; the normalised cell viability under setting [5] was found to be 1.01 ± 0.011; the normalised cell viability under setting [6] is 0.9967 ± 0.0049.

Consider `CCn1cc(C(=O)O)c(=O)c2cc3c(cc21)OCO3` [Oxolinic acid], for which the normalised cell viability came to 1.007 ± 0.0058 under setting [1]; 1.02 ± 0.015 under setting [2]; 1.007 ± 0.0058 under setting [3]; 1.05 ± 0.076 under setting [4]; 1.01 under setting [5]; 1.02 ± 0.017 under setting [6].

Consider `NCC(O)c1ccc(O)cc1` (racemic) [(±)-Octopamine hydrochloride], for which the normalised cell viability by setting is: under setting [1], 1.01 ± 0.014; under setting [2], 1.02 ± 0.02; under setting [3], 1.01 ± 0.011; under setting [4], 1.05 ± 0.079; under setting [5], 0.9943 ± 0.0025; under setting [6], 0.9977 ± 0.004.

Turning to `C[C@@H]1O[C@@H](O[C@H]2C[C@@H](O)[C@]3(CO)[C@H]4[C@H](O)C[C@]5(C)[C@@H](C6=CC(=O)OC6)CC[C@]5(O)[C@@H]4CC[C@]3(O)C2)[C@H](O)[C@H](O)[C@H]1O` [Ouabain], the normalised cell viability under setting [1] came to 0.00947 ± 0.006; the normalised cell viability under setting [2] worked out at 0.00628 ± 0.0019; the normalised cell viability under setting [3] was 0.0931 ± 0.013; the normalised cell viability under setting [4] is 0.07 ± 0.028; the normalised cell viability under setting [5] came to 0.00711 ± 0.0021; the normalised cell viability under setting [6] came out at 0.00424 ± 0.002.

Turning to `Clc1cc(I)cc(Cl)c1NC1=NCCN1` [p-Iodoclonidine hydrochloride], the normalised cell viability was 0.998 ± 0.011 under setting [1]; 0.969 ± 0.039 under setting [2]; 0.994 ± 0.018 under setting [3]; 1.02 ± 0.07 under setting [4]; 0.967 ± 0.0053 under setting [5]; 0.98 ± 0.013 under setting [6].

Regarding `C[C@@H](N)Cc1cnc[nH]1` [Histamine, R(-)-alpha-methyl-, dihydrochloride], the normalised cell viability came out at 0.997 ± 0.0027 under setting [1]; 0.997 ± 0.011 under setting [2]; 1 under setting [3]; 0.994 ± 0.014 under setting [4]; 0.9917 ± 0.0045 under setting [5]; 0.9963 ± 0.0032 under setting [6].

`C[C@H]1O[C@@H](C[N+](C)(C)C)CS1`: the normalised cell viability under setting [1] amounted to 1.013 ± 0.0058; the normalised cell viability under setting [2] worked out at 1.007 ± 0.0058; the normalised cell viability under setting [3] turned out to be 1; the normalised cell viability under setting [4] is 1 ± 0.024; the normalised cell viability under setting [5] amounted to 0.9857 ± 0.0046; the normalised cell viability under setting [6] was 0.9857 ± 0.0038.

In the case of `Cc1nccc2c1[nH]c1ccccc12` [Harmane], the normalised cell viability runs as follows: under setting [1], 1.007 ± 0.0058; under setting [2], 0.97 ± 0.026; under setting [3], 1 ± 0.013; under setting [4], 0.986 ± 0.01; under setting [5], 1.01 ± 0.012; under setting [6], 1.003 ± 0.0058.

In the case of `CCCN1CCc2cccc3c2[C@H]1Cc1ccc(O)c(O)c1-3` [R(-)-Propylnorapomorphine hydrochloride], the normalised cell viability was 0.9857 ± 0.0063 under setting [1]; 0.987 ± 0.018 under setting [2]; 0.984 ± 0.027 under setting [3]; 0.971 ± 0.0087 under setting [4]; 0.988 ± 0.0027 under setting [5]; 0.981 ± 0.0076 under setting [6].

On to `c1ccc2c(c1)[I+]c1ccccc1-2` [Diphenyleneiodonium chloride], for which the normalised cell viability by setting is: under setting [1], 0.45 ± 0.015; under setting [2], 0.0556 ± 0.0019; under setting [3], 0.649 ± 0.014; under setting [4], 0.0883 ± 0.044; under setting [5], 0.232 ± 0.015; under setting [6], 0.00555 ± 0.0077.

Consider `COc1ccc2c(c[n+](C)c3c4cc5c(cc4ccc23)OCO5)c1OC` [Chelerythrine chloride], for which the normalised cell viability was 1.02 ± 0.01 under setting [1]; 0.184 ± 0.022 under setting [2]; 1.023 ± 0.0058 under setting [3]; 1.04 ± 0.042 under setting [4]; 0.995 ± 0.004 under setting [5]; 0.365 ± 0.035 under setting [6].

As for `CNc1ccc2oc(C[C@H]3O[C@@]4(CC[C@H]3C)O[C@H]([C@H](C)C(=O)c3ccc[nH]3)[C@H](C)C[C@H]4C)nc2c1C(=O)O` [Calcimycin], the normalised cell viability under setting [1] came to 0.909 ± 0.018; the normalised cell viability under setting [2] amounted to 0.0265 ± 0.002; the normalised cell viability under setting [3] was 1.01 ± 0.013; the normalised cell viability under setting [4] came out at 0.0205 ± 0.0037; the normalised cell viability under setting [5] was determined as 0.91 ± 0.036; the normalised cell viability under setting [6] was 0.0377 ± 0.014.

As to `CN(N=O)c1cc(O)ccc1O` [Dephostatin], the normalised cell viability reads like this: under setting [1], 0.9973 ± 0.0031; under setting [2], 0.999 ± 0.01; under setting [3], 0.997 ± 0.015; under setting [4], 0.9877 ± 0.005; under setting [5], 0.987 ± 0.0027; under setting [6], 0.9903 ± 0.0065.

Turning to `CC(N)Cc1c[nH]c2ccc(O)cc12` (stereo not drawn) [alpha-Methyl-5-hydroxytryptamine maleate], the normalised cell viability reads like this: under setting [1], 0.984 ± 0.016; under setting [2], 0.959 ± 0.017; under setting [3], 0.9953 ± 0.0055; under setting [4], 1.01 ± 0.092; under setting [5], 0.9843 ± 0.0032; under setting [6], 0.983 ± 0.012.

The record behind these values is the supplement of paper PMC8285479.
